Laboratory results: publication PMC7819943, “Rice protein-binding microarrays: a tool to detect cis-acting elements near promoter regions in rice”
The other results are listed elsewhere or left out.

target: T1, OsWOX13 (Oryza sativa, UniProt Q5QMM3 1-267); test: protein-binding microarray (RPBM); PBS, 2% BSA, 51.3 ng/ul salmon testes DNA, 50 uM zinc acetate, 200 nM TF, 25 C, 1 h; high values mean tight binding; settings: protein: recombinant; tags: N-terminal polyhistidine and DsRed monomer fusion (pET32a); label: CyDye5-dUTP incorporated in the synthesized complementary strand; 3' TTTTT single-stranded linker to array surface; dsDNA, one strand shown
T1 sequence: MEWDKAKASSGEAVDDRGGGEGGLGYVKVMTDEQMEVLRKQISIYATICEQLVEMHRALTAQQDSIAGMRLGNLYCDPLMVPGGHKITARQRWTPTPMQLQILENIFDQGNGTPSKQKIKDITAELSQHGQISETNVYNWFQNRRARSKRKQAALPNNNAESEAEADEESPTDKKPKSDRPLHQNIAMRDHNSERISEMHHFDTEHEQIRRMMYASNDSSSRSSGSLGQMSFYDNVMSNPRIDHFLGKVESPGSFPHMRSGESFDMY
Method in brief: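 The binding signal is fluorescence intensity per array feature (arbitrary units). Readings came from an Axon 4000B scanner after a washed, 2% BSA-blocked, double-stranded custom Agilent array had been incubated for 1 h at 25 °C with 200 nM protein and 50 µM zinc acetate. The protein was a Ni–NTA-purified transcription factor fused N-terminally to polyhistidine and DsRed, expressed in E. coli BL21-CodonPlus.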

Sequence | binding signal
TCTGCTTAATTGGGCCGATCTCAAGCCCTTGGCGGAACTTCGGAGTCACCTAGTGCAG | 13100 fluorescence intensity (a.u.)
GCCCCTTTGTTAACATGATTATCTTGTTTTCACAGAATAACGGAGTCACCTAGTGCAG | 6640 fluorescence intensity (a.u.)
GTGTAATTAAGTGGCTGACAGAGGAGAGTAATTAGCCGTACGGAGTCACCTAGTGCAG | 22200 fluorescence intensity (a.u.)
CCAATTAGGACCCAAATTAATCTTTGCCTTCCTGGACTTGCGGAGTCACCTAGTGCAG | 5190 fluorescence intensity (a.u.)
CCAGGCAAATTTGATGATCTGAGACCAGGAATCCTTGGACCGGAGTCACCTAGTGCAG | 4770 fluorescence intensity (a.u.)
GTGTTATTGACTGGTATAGTTATTACCTGCTCTACTACCCCGGAGTCACCTAGTGCAG | 32400 fluorescence intensity (a.u.)
TTGTGATTTTCTTAAATCTCAACCACCCGCCCATCTCCCCCGGAGTCACCTAGTGCAG | 13300 fluorescence intensity (a.u.)
AGATGACAGATTTTGCAGCTTGAACGAATCATGCGTTTTCCGGAGTCACCTAGTGCAG | 9480 fluorescence intensity (a.u.)
TTCTTCCTCTTGCCAATTAATTCCTCTCCAAGAACCAAGTCGGAGTCACCTAGTGCAG | 3470 fluorescence intensity (a.u.)
GTTGGTGGATTGACACGACTACACGGAGTACCTAGTATTTCGGAGTCACCTAGTGCAG | 14800 fluorescence intensity (a.u.)
ACCTGTAGTTGCCAATCAAACATGTCTTACGGCCTGTTTGCGGAGTCACCTAGTGCAG | 8480 fluorescence intensity (a.u.)
CTAAATTTTGGTAACTATATAAGAAATCCTACCAAAATTTCGGAGTCACCTAGTGCAG | 5400 fluorescence intensity (a.u.)
CCATTTTAACTGACATGATTAGCCAACTATGATCATAATGCGGAGTCACCTAGTGCAG | 46400 fluorescence intensity (a.u.)
AGCATAATTTAAACAAATATTTATTTAACAAATAGTTTAACGGAGTCACCTAGTGCAG | 17600 fluorescence intensity (a.u.)
CTGTGCCAGTCAATCAGTCACAGTTGGTAATGCTAGTAAGCGGAGTCACCTAGTGCAG | 26400 fluorescence intensity (a.u.)
AAAACAAGGGTAGATTGATGAACCAATACAGGGAGAAGATCGGAGTCACCTAGTGCAG | 5800 fluorescence intensity (a.u.)
ATTCTCACTGACTGTTTACCAATTACTTCCTTCATCCAATCGGAGTCACCTAGTGCAG | 7910 fluorescence intensity (a.u.)
TTTGTGAATGATTTGCAGATTTGTGGATGGGAATATATTGCGGAGTCACCTAGTGCAG | 23500 fluorescence intensity (a.u.)
GGGTTGAAATTTTAATTTATATATCCTTTCCCAATTCCATCGGAGTCACCTAGTGCAG | 11000 fluorescence intensity (a.u.)
GATCCAACCAGTCCCCATTGATTGGGGCCAATGTACTTTCCGGAGTCACCTAGTGCAG | 3610 fluorescence intensity (a.u.)
TAAAACAAATCAAAGATTACAGACTAGTATGATTTTGACGCGGAGTCACCTAGTGCAG | 11200 fluorescence intensity (a.u.)
GCAAATTGGATGACTATTACAACATAAATGTGATTCATCACGGAGTCACCTAGTGCAG | 37300 fluorescence intensity (a.u.)
ATTTCTATCACCGTAATCAGAAGAGCGTTTATAACACCATCGGAGTCACCTAGTGCAG | 8800 fluorescence intensity (a.u.)
CTGACTGGTCATGGACAGAGATTTAATACACATTCTGCTTCGGAGTCACCTAGTGCAG | 3160 fluorescence intensity (a.u.)
ATCTGTAATTTGTTTTATTATTAGACAACGTTTAATACTTCGGAGTCACCTAGTGCAG | 14500 fluorescence intensity (a.u.)
CAAACAAATTTTGGTCTTTGACAGGCTGAGACCGAATTACCGGAGTCACCTAGTGCAG | 13400 fluorescence intensity (a.u.)
CTCTATTGATTACTGCCTTATTGCCATCTCACTTCGATAACGGAGTCACCTAGTGCAG | 29300 fluorescence intensity (a.u.)

Sequence | binding signal
GCCTTATACATGATTATAATCTTCTAACTTCTTCTTAACTCGGAGTCACCTAGTGCAG | 23900 fluorescence intensity (a.u.)
AGATAATTTAATTGTTAACCATGTATGGCTGTAAGGGTATCGGAGTCACCTAGTGCAG | 43900 fluorescence intensity (a.u.)
CATCCTCATTAACGGCAGATTAATACTATTTAGTCCATCTCGGAGTCACCTAGTGCAG | 3220 fluorescence intensity (a.u.)
TTGTATTTGTTAATGGAATGCTGATTGGTGCACAGCAAACCGGAGTCACCTAGTGCAG | 29900 fluorescence intensity (a.u.)
AGTATAAGATTAATATTAATTCATCCATTTCAGTTATTTCCGGAGTCACCTAGTGCAG | 5310 fluorescence intensity (a.u.)
TCCCTTAACGTCTCCGAATGATTGTAACAGTATATCATCCCGGAGTCACCTAGTGCAG | 7180 fluorescence intensity (a.u.)
TAGTTTAATCAATTTACGTGTGACCACTAATATAATTAACCGGAGTCACCTAGTGCAG | 16900 fluorescence intensity (a.u.)
GGAACCCTATCATCTAGGCAATCATGCCGGCACAGTGCATCGGAGTCACCTAGTGCAG | 4440 fluorescence intensity (a.u.)
GAATCCATTCATTGATAGTATGATTTTATGAAACTACACTCGGAGTCACCTAGTGCAG | 7360 fluorescence intensity (a.u.)
ACCACGTTTGATTTAGCCAATCACATTCACCAAGGCAAATCGGAGTCACCTAGTGCAG | 16100 fluorescence intensity (a.u.)
CTAGAAATTAGGTGATTAATTTATTAAACACAATATTGCCCGGAGTCACCTAGTGCAG | 56900 fluorescence intensity (a.u.)
AGTAATTATTAATTATTTTCCTATCATTTGATTTATTGTTCGGAGTCACCTAGTGCAG | 35700 fluorescence intensity (a.u.)
AATAAATAATTGTCATAATTACCCAATAAGTCCAGCTAACCGGAGTCACCTAGTGCAG | 26600 fluorescence intensity (a.u.)
CCGAACAGAGCCATAATTAAATTGGGAATACCCTGAATGACGGAGTCACCTAGTGCAG | 7060 fluorescence intensity (a.u.)
AGAGCAATTGACTGACATACCATTATTAAGATGAACTGATCGGAGTCACCTAGTGCAG | 21100 fluorescence intensity (a.u.)
GCATGATTTGATCGTTTGCCTATAGAAAGTTAATTTAGTACGGAGTCACCTAGTGCAG | 16500 fluorescence intensity (a.u.)
GCACATCTTCCTTAATTGCCAAAAGAGTAAATTTCACGAACGGAGTCACCTAGTGCAG | 8910 fluorescence intensity (a.u.)
CACGGAAAATAAATTGAGGGAAGCTGTGGAGGTGCCGAGTCGGAGTCACCTAGTGCAG | 8360 fluorescence intensity (a.u.)
TTTTAATGTAATTTTCTCGCAAAATGAAAATTATGACATCCGGAGTCACCTAGTGCAG | 7470 fluorescence intensity (a.u.)
ATTTTATCAATCACGCCCATAAAATTTGGACGCAACTAGTCGGAGTCACCTAGTGCAG | 33000 fluorescence intensity (a.u.)
AAATAATTAATGACCTCCTAATATTTCATCATCGTCTTCTCGGAGTCACCTAGTGCAG | 17800 fluorescence intensity (a.u.)
AACCAATCAATCGTTAGAAAGATCACCTCCAGGGCTCCAGCGGAGTCACCTAGTGCAG | 27800 fluorescence intensity (a.u.)
CTCAAAGTCTCAAACCCAGCAGTTAGCAACTTCCATTTCTCGGAGTCACCTAGTGCAG | 4880 fluorescence intensity (a.u.)
TGTGATAGGCTTCAATGTTTAATCTCACCATCGATTGTTACGGAGTCACCTAGTGCAG | 5800 fluorescence intensity (a.u.)
ATATCGAAATTGATGCTTGACCAGTCAACACTACTTAATCCGGAGTCACCTAGTGCAG | 9110 fluorescence intensity (a.u.)
CAGACTAAATTTCAGTCATTGAATGATGAAAAGAAAGCACCGGAGTCACCTAGTGCAG | 19600 fluorescence intensity (a.u.)
TACACCGATCCATGATTGGTACATAGTACGCCGGTGAATCCGGAGTCACCTAGTGCAG | 14000 fluorescence intensity (a.u.)
